Results taken from article PMC7041945, “Misfolded proteins bind and activate death receptor 5 to trigger apoptosis during unresolved endoplasmic reticulum stress” (eLife, 2020).
Results are given in words; binding and its absence hold for the method and conditions named. For part of these data: Binding seen in cells or lysates may run through a third protein. Some binding calls cover weakened binding; strength is not graded here. For part of these data: Sequences can lack the tags named with a protein.

Chains of the proteins cited; added tags and fusions are not shown. Residues count along the entry.
UniProt O14763, residues 56-440: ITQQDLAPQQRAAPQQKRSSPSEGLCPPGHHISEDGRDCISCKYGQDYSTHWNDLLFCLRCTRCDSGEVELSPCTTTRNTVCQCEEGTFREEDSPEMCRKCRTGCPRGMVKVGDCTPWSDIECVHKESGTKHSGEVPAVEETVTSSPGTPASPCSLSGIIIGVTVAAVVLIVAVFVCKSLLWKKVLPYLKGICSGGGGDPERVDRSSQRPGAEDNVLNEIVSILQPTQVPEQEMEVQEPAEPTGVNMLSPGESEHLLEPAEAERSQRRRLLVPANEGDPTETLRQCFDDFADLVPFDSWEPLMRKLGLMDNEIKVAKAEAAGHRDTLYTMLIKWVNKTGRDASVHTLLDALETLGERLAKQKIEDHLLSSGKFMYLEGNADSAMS
UniProt P19438, residues 30-211: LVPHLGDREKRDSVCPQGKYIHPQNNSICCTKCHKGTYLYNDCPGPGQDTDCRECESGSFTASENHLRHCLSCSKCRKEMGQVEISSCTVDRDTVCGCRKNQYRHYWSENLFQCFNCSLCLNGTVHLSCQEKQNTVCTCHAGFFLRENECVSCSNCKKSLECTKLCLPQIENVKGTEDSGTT

How the values were obtained:
[1] = target: death receptor 5 (DR5), endogenous (human (endogenous in HCT116)) (UniProt O14763); assay: co-IP; immunoprecipitation of DR5 with anti-DR5 mAb 5C7-conjugated agarose beads from lysates of HCT116 transfected with MPZ-GFP or the empty vector; blotted for DR5, MPZ-GFP, FADD
[2] = target: death receptor 5 (DR5), endogenous (human (endogenous in HCT116)) (UniProt O14763); assay: SEC; lysates of HCT116 transfected with MPZ-GFP or cytosolic GFP (24 hr) on SuperDex200 10/300 GL in 30 mM HEPES pH 7.2, 150 mM NaCl, 1% Triton X-100; pooled fractions blotted for DR5 and GFP
Fc-tagged TNFR1 ECD = Fc-tagged TNFR1 ECD (UniProt P19438); assay: pull-down; Fc-tagged ECD held on Dynabeads Protein G, incubated with peptide in 20 mM HEPES pH 7.2, 100 mM KOAc, 0.2% Tween-20, 1 hr at RT; Coomassie-stained SDS-PAGE; both purified
[3] = target: AlexaFluor647-labeled TNFR1 ECD (human); assay: other fluorescence titration; fluorescence quenching of 200 nM AlexaFluor647-labeled ECD by a two-fold dilution series of unlabeled peptide; 20 mM HEPES pH 7.2, 100 mM KOAc, 0.1% Tween-20; 25°C, capillary scan on Monolith NT.115; apparent, Hill fit; both purified
[4] = target: AlexaFluor647-labeled DR5 long isoform ECD (human); assay: as above
[5] = target: FLAG-tagged DR5 long isoform ECD (human); assay: SEC; 25 μM recombinant DR5L ECD alone or pre-incubated overnight at 4°C with 100 or 400 μM fluorescein-conjugated peptide or 25 μM TRAIL; SuperDex200 10/300 GL, 30 mM HEPES pH 7.2, 150 mM NaCl; fractions on SDS-PAGE, fluorescence scan and Coomassie; both purified

B1: myelin protein zero (MPZ) tagged with a C-terminal monomeric EGFP (protein, UniProt P25189 30-248)
chain: IVVYTDREVHGAVGSRVTLHCSFWSSEWVSDDISFTWRYQPEGGRDAISIFHYAKGQPYIDEVGTFKERIQWVGDPRWKDGSIVIHNLDYSDNGTFTCDVKNPPDIVGKTSQVTLYVFEKVPTRYGVVLGAVIGGVLGVVLLLLLLFYVVRYCWLRRQAALQRRLSAMEKGKLHKPGKDASKRGRQTPVLYAMLDHSRSTKAVSEKKAKGLGESRKDKK
With B1 the binding [1] was “binds” and the binding [2] was “binds”.

In the case of VSDDISFTWRYQPEGGRD [MPZ-ecto^VD peptide], the binding (Fc-tagged TNFR1 ECD) is reported as “no binding (tested: 100 μM peptide)”.

With FTWRYQPEGGRDAISIFHYA [MPZ-ecto peptide] the binding [3] was “no binding”.

With FTWREQPEGGRDAISIFHEA [MPZ-ecto^Tyr→Glu peptide] the binding [4] was “no binding”.

With FTWREQPEGGRDAISIFHEA (fluorescein-conjugated) [fluorescein-conjugated MPZ-ecto^Tyr→Glu peptide] the binding [5] was “no binding (tested: 100 μM peptide, 25 μM DR5L ECD)”.
